The results in this text go back to article PMC4336329 (PLoS ONE, 2015).

In all, about 310,000 compounds went through this assay and about 2,200 (0.71%) showed an effect of 50% or more. Effects have a minus sign here. Some of the results follow.

For the assay, the target named is human ether-à-go-go-related gene (hERG) potassium channel (human, UniProt Q12809). Description: primary screen, population patch clamp on CHO cells stably expressing hERG.
human ether-à-go-go-related gene (hERG) potassium channel, sequence (Q12809 whole entry, looked up): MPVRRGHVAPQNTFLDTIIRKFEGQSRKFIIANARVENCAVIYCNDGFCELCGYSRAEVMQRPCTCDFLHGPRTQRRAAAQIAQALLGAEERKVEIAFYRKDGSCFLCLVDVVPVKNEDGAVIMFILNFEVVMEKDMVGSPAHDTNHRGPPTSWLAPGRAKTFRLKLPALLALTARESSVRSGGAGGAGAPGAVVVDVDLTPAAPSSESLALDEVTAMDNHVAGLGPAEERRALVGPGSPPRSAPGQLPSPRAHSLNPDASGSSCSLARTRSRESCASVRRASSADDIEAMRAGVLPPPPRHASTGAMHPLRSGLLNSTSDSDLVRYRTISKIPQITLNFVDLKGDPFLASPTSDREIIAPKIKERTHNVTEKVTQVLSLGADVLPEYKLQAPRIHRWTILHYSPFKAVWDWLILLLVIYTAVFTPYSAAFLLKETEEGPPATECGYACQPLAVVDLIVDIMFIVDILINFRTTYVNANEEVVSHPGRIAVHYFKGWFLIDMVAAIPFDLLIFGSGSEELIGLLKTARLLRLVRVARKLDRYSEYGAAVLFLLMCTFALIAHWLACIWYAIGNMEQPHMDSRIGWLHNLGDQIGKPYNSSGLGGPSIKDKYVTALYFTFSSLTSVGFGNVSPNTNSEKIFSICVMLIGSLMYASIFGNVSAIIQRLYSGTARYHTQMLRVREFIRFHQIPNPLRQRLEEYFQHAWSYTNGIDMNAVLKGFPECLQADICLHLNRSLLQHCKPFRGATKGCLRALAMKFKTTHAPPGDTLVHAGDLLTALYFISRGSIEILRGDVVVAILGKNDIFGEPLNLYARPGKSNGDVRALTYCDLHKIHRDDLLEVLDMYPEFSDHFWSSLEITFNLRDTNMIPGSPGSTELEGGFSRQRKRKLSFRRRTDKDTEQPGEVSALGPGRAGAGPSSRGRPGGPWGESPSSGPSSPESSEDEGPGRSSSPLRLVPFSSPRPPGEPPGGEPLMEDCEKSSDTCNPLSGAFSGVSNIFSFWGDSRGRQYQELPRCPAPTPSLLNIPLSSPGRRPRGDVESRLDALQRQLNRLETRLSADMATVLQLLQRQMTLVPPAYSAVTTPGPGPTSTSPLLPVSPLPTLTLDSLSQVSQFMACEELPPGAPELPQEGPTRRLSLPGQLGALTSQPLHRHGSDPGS
Turning to `CC(=O)NC(C(=O)c1ccccc1)C(=O)c1ccccc1`, the “hERG current change (%, negative = inhibition) at 1uM” value worked out at 7.64%.
With `C/C(=N\NC(=O)C(C)Nc1cccc(Cl)c1)c1ccc([N+](=O)[O-])cc1` (centres unmarked), the “hERG current change (%, negative = inhibition) at 1uM” value is listed as -8.04%.
Consider `CCn1c(=NC(=O)CCS(=O)(=O)c2ccccc2)sc2cccc(OC)c21`, for which the “hERG current change (%, negative = inhibition) at 1uM” value was 7.7%.
With `COC(=O)c1cc(OC)c(OC)cc1NC(=O)C(C)c1ccc([N+](=O)[O-])cc1` (centres unmarked), the “hERG current change (%, negative = inhibition) at 1uM” value is 8.84%.
Under `O=S(=O)(Nc1ccccc1Cl)c1ccc2[nH]c(=S)oc2c1` stands 12.8%; under `CCn1c(SCC(=O)N/N=C/C(C)=C/c2ccco2)nnc1-c1ccccc1`, -18.7%.
With `COc1ccc(/C=N/N2C(=O)CN(C(=O)c3ccccc3)C2c2ccc(OC)cc2)cc1` (centres unmarked), the “hERG current change (%, negative = inhibition) at 1uM” value was found to be 10.2%.
For the compound `Cc1c(S(=O)(=O)NC(C)c2ccccc2)c(=O)n(C)c(=O)n1C` (centres unmarked), the “hERG current change (%, negative = inhibition) at 1uM” value is recorded as 9.89%.
In the case of `CCN(CC)CCN(CC(=O)Nc1c(C)cc(C)cc1C)C(=O)c1ccccc1.O=C(O)/C=C/C(=O)O` it was 3.87%; in that of `COc1ccc(-c2[nH]ncc2CNC(C)CCn2cccn2)c(F)c1` (centres unmarked), 11.2%; in that of `Cc1ccc(NC(=O)C2C3C=CC4(O3)C2C(=O)N(CCCN2CCCC(C)C2)C4C(=O)NC2CCCCC2)cc1` (centres unmarked), 14.1%.
Consider `CCOc1cc(C(N)=O)cc(Cl)c1OCC`, for which the “hERG current change (%, negative = inhibition) at 1uM” value is reported as 12.4%.
Under `COc1cc(C(=O)NCCC(=O)NCCc2ccc(Cl)cc2)cc(OC)c1OC` stands 8.3%; under `O=C(O)COc1ccc(NC(=O)c2ccc3c(c2)C(=O)N(C2CCCCC2)C3=O)cc1`, 19.2%; under `CCOC(=O)C1(Cc2ccccc2)CCN(Cc2cn(CC(=O)OC)c3ccccc23)CC1`, -34.7%.
In the case of `FC(F)(F)c1ccccc1C1=CC(c2ccccc2)n2ncnc2N1` (centres unmarked), the “hERG current change (%, negative = inhibition) at 1uM” value stood at 3.86%.
`O=C(NCCCN1CCOCC1)C(C(=O)c1ccccc1)n1ccccc1=O` (centres unmarked): the “hERG current change (%, negative = inhibition) at 1uM” value worked out at 13.2%.
With `CC(C)CNC(=O)CN1C(=O)NC(Cc2c[nH]c3ccccc23)C1=O` (centres unmarked), the “hERG current change (%, negative = inhibition) at 1uM” value stood at 7.76%.
For the compound `CC(OC(=O)C1CCN(c2ccc(C(F)(F)F)cn2)CC1)C(=O)c1ccccc1` (centres unmarked), the “hERG current change (%, negative = inhibition) at 1uM” value was 9.37%.
As for `COc1nc(OC)nc(N2CCC(C(=O)NCC3CCCCC3)CC2)n1`, the “hERG current change (%, negative = inhibition) at 1uM” value is on record as -16.3%.
Consider `CC[n+]1ccc(C)c2cc(P(=O)(c3ccccc3)c3ccccc3)ccc21.[I-]`, for which the “hERG current change (%, negative = inhibition) at 1uM” value turned out to be 13.9%.
Regarding `CCCc1nn(C)c(C(=O)Nc2ccc3ccccc3c2)c1Cl`, the “hERG current change (%, negative = inhibition) at 1uM” value turned out to be 5.07%.
In the case of `Cc1cc(OCC(O)CN2CCCC2)cc(C)c1Cl.Cl` (centres unmarked) it was -0.624%; in that of `CCn1nc(C(=O)Nc2ccc3nc(C)sc3c2)c2ccccc2c1=O`, -3.48%.
With `CCCCNC(=S)N1CCN(c2nc3ccccc3s2)CC1`, the “hERG current change (%, negative = inhibition) at 1uM” value is listed as 10.4%.
Under `C[C@H]1CN=C(Nc2ccccc2)N1CCc1ccc(F)cc1` stands -4.11%; under `O=[N+]([O-])c1ccc(NCCCN2CCOCC2)c(Cl)c1`, 1.78%; under `COc1ccc(CCNC(=O)CNC(=O)c2ccc3c(c2)OCO3)cc1OC`, 16.5%.
In the case of `O=c1oc2c3c4c(cc2s1)CCCN4CCC3` it was 2.25%; in that of `Cc1ccc(C(=O)NCCN2C3=NC[C@H](Cc4ccc(O)cc4)N3C[C@H]2Cc2ccc(O)cc2)cc1Br`, -9.94%; in that of `O=C(CCc1nnc(C2(c3ccc(Cl)cc3)CCC2)o1)N1CCCC(O)C1` (centres unmarked), 8.81%.
In the case of `O=C(O)CSCC(=O)Nc1ccc(C(F)(F)F)cc1` it was 11.9%; in that of `CC(=O)N1CCN(c2ncnc3sc(-c4ccccc4)cc23)CC1`, -7.28%.
`CNC(=O)COC(=O)c1ccc(OCC(=O)Nc2ccccc2OC)c(OC)c1`: the “hERG current change (%, negative = inhibition) at 1uM” value came out at 9.43%.
In the case of `COc1ccc(Cn2c(=O)n(Cc3ccco3)c(=N)c3c4c(sc32)COC(C)(C)C4)cc1` it was -2.68%; in that of `CC(C)Nc1nc(SCC(=O)Nc2ccccc2)nc(N2CCOCC2)n1`, -1.53%; in that of `Cl.OC(CNCc1ccncc1)c1ccccc1` (centres unmarked), 11.9%.
For the compound `CC(=O)Nc1cccc2c1C(=O)N(c1ccc(OC(C)=O)cc1)C2=O`, the “hERG current change (%, negative = inhibition) at 1uM” value turned out to be 13.3%.
As for `COc1ccc(C(NC(=O)c2ccco2)c2ccc(OC)c(OC)c2)cc1OC`, the “hERG current change (%, negative = inhibition) at 1uM” value was determined as 2.92%.
`Cc1ccc(-c2nc(-c3ccccn3)no2)cc1`: the “hERG current change (%, negative = inhibition) at 1uM” value is on record as -7.16%.
Take `O=C(Cn1nnc2ccccc2c1=O)N[C@@H](Cc1c[nH]c2ccccc12)C(=O)O`: the “hERG current change (%, negative = inhibition) at 1uM” value was 11.6%.
Consider `COc1ccc(C(=O)Oc2ccc3ccc(=O)oc3c2)cc1OC`, for which the “hERG current change (%, negative = inhibition) at 1uM” value was 17%.
For the compound `CNC(=O)c1c2c(nc3ccc(Br)cc13)CCCC2`, the “hERG current change (%, negative = inhibition) at 1uM” value turned out to be 9.1%.
Turning to `CN1C=CC=C/C1=C1\SC(=S)N(c2ccccc2)C1=O`, the “hERG current change (%, negative = inhibition) at 1uM” value came to 10.7%.
Take `O=C(NCCc1ccccc1)c1ccc2nc(-c3ccco3)c(-c3ccco3)nc2c1`: the “hERG current change (%, negative = inhibition) at 1uM” value came out at 7.25%.
With `Fc1ccc(CSc2nc3ccccc3[nH]2)c2ccccc12`, the “hERG current change (%, negative = inhibition) at 1uM” value amounted to 9.24%.
As to `COc1cc(C(=O)OCCCN2CCOCC2)ccc1O`, the “hERG current change (%, negative = inhibition) at 1uM” value is listed as 4.79%.
In the case of `Cc1cccc(NC(=O)CSCc2cc(=O)n3c(C)csc3n2)c1C` it was 5.73%; in that of `CC1CCN(C(=O)c2ccc(-n3cnnn3)cc2)CC1`, -29.3%; in that of `Cc1cccc(NC(=O)c2ccc(S(=O)(=O)N3CCCCC3)cc2)c1`, 12.5%.
Take `Fc1ccc(-c2nnc(SCc3cccnc3)o2)cc1`: the “hERG current change (%, negative = inhibition) at 1uM” value is given as 11.6%.
Regarding `O=C(Nc1nnc(-c2cccnc2)o1)c1cccc([N+](=O)[O-])c1`, the “hERG current change (%, negative = inhibition) at 1uM” value was 13.1%.
With `CC(=O)N1[C@H](C)C=C[C@]1(Cc1ccccc1)C(=O)O`, the “hERG current change (%, negative = inhibition) at 1uM” value amounted to 14.3%.
Turning to `CC1(C)C(c2ccco2)=[N+]([O-])C2(CCCCC2=O)N1O` (centres unmarked), the “hERG current change (%, negative = inhibition) at 1uM” value was determined as 17%.
Under `Cc1ccc(NC(=O)COC(=O)[C@H](C)NC(N)=O)c(C)c1` stands 11.1%; under `COc1ccc(C2=NN(C(=O)CSc3nc(=O)n4cc(C)ccc4n3)C(c3ccc(C)cc3)C2)cc1` (centres unmarked), 6.83%.
`O=C(Nc1cc(Cl)cc(Cl)c1)c1cccc(OC(F)F)c1`: the “hERG current change (%, negative = inhibition) at 1uM” value stood at 0.757%.
As for `COc1ccc(C(=O)Nc2c(N)nc(SCC(=O)Nc3ccc(NC(C)=O)cc3)[nH]c2=O)cc1`, the “hERG current change (%, negative = inhibition) at 1uM” value is 14.8%.
Turning to `Cc1cccn2c(=O)nc(SCC(=O)N3CCCCC3)nc12`, the “hERG current change (%, negative = inhibition) at 1uM” value is listed as -3.48%.
In the case of `Cn1c(=O)cc(OCC(=O)NCc2cccnc2)c2ccccc21`, the “hERG current change (%, negative = inhibition) at 1uM” value is listed as 7.35%.
As for `Cc1ccc(NC(=O)CSc2nc(=O)n(CCCN3CCOCC3)c3c2CCCC3)cc1F`, the “hERG current change (%, negative = inhibition) at 1uM” value came to 0.67%.
Regarding `NNC(=O)c1cc(-c2cccs2)nc2ccccc12`, the “hERG current change (%, negative = inhibition) at 1uM” value is 8.74%.
With `O=C(c1ccccc1)N1CCN(S(=O)(=O)N2CCOCC2)CC1`, the “hERG current change (%, negative = inhibition) at 1uM” value is 12.1%.
Regarding `Cc1cc(C)nc(SCc2ccc3nonc3c2)n1`, the “hERG current change (%, negative = inhibition) at 1uM” value is given as -0.492%.
In the case of `CCOc1ccc(/C=N/OCC(=O)NCc2ccc3c(c2)OCO3)cc1OC`, the “hERG current change (%, negative = inhibition) at 1uM” value came out at 24.3%.
In the case of `O=C(Nc1cccc2c1CCCC2)C1CCN(c2nnnn2-c2ccccc2)CC1` it was 0.576%; in that of `CCSc1oc(-c2ccco2)nc1S(=O)(=O)c1ccc(C)cc1`, 12.8%.
Take `Cc1c(Br)c(O)c(Br)c2sc(=O)oc12`: the “hERG current change (%, negative = inhibition) at 1uM” value is listed as 15.4%.
Consider `O=C(Nc1cccc(C(F)(F)F)c1)c1cnc2n(c1=O)CCS2`, for which the “hERG current change (%, negative = inhibition) at 1uM” value was determined as 5.1%.
With `COCCCN1C(=O)N(c2ccc(F)cc2)C(=O)C1CC(=O)Nc1ccccc1` (centres unmarked), the “hERG current change (%, negative = inhibition) at 1uM” value is reported as 10.2%.
For the compound `CCc1cccc(CC)c1NC(=O)COC(=O)C1(c2ccc(Cl)cc2)CCCC1`, the “hERG current change (%, negative = inhibition) at 1uM” value is recorded as 14.9%.
In the case of `CCCC(=O)c1c(NC(C)C)cc(C)oc1=O` it was 5.86%; in that of `CC(C)(C)NCCOCCOc1ccc(Cl)cc1C(C)(C)C.O=C(O)C(=O)O`, 10.2%.
Take `CCOCCCNc1ccc(N2C(=O)CCCC2=O)cc1[N+](=O)[O-]`: the “hERG current change (%, negative = inhibition) at 1uM” value is on record as 5.65%.
In the case of `COc1ccc(C)cc1S(=O)(=O)Nc1ccc(F)c(Cl)c1`, the “hERG current change (%, negative = inhibition) at 1uM” value was found to be 5.7%.
Under `O=c1oc(-c2ccccc2)nc2c1C1(CCCCC1)Cc1ccccc1-2` stands 8.31%.
On to `CCOc1cc(C2C(C(=O)N3CCCCC3)=C(C)NC3=C2C(=O)CC(C)(C)C3)ccc1O` (centres unmarked), for which the “hERG current change (%, negative = inhibition) at 1uM” value stood at 1.34%.
In the case of `COc1cccc(N2CCN(c3nc(C)c(C)c(=O)[nH]3)CC2)c1` it was 12.3%.
Under `CCc1nnc(NC(=O)CSc2ccc(-c3ccc(-n4cccn4)cc3)nn2)s1` stands 10.4%; under `Cc1cc(C)c2nc(SCCC#N)nc(C)c2c1`, -1.98%; under `O=C(c1ccccc1)c1nc[nH]c1C(=O)Nc1ccccn1`, 15.7%.
In the case of `S=C(NCCCN1CCOCC1)Nc1ccc(Cl)c(Cl)c1` it was -2.66%; in that of `Cc1ccc(C(=O)CSc2ccccn2)cc1`, 8.35%; in that of `CS(=O)(=O)N(CCc1ccccc1)CC(=O)NCc1ccccc1Cl`, 6%.
As for `Cc1oc(-c2cccc(Cl)c2)nc1CN(C)C1CCOC1` (centres unmarked), the “hERG current change (%, negative = inhibition) at 1uM” value was determined as 7.9%.
As to `O=C(NCc1cc(C(F)(F)F)cc(C(F)(F)F)c1)C1CC(c2ccccc2C(F)(F)F)=NO1` (centres unmarked), the “hERG current change (%, negative = inhibition) at 1uM” value came out at 4.14%.
For the compound `NC(N)=Nc1nc2ccc(Cl)cc2c(=O)[nH]1`, the “hERG current change (%, negative = inhibition) at 1uM” value was found to be 11.7%.
Consider `COc1cccc(-c2cc(N3C(=O)Nc4ccccc4N3O)n[nH]2)c1`, for which the “hERG current change (%, negative = inhibition) at 1uM” value amounted to 9.7%.
Turning to `Cn1cc(C(c2ccccc2OCC(=O)O)c2cn(C)c3ccccc23)c2ccccc21`, the “hERG current change (%, negative = inhibition) at 1uM” value is recorded as -1.93%.
